Source: PubChem BioAssay AID1347165 (National Center for Advancing Translational Sciences (NCATS), 2019)
Screen size: about 220,000 compounds; about 5,700 (2.6%) were called active. The inconclusive results got no clear call from the source; some entries with a clear call stand among them for comparison. Calls come from the whole dose curve; as a rule, active = well fitted inhibition curve with a large enough effect; inconclusive = small, poorly fitted or top-dose-only effect; inactive = no such curve, though single readings can be large or run the other way. Potencies beside an inconclusive call are fits to weak or partial responses and may not hold up.
Note: nearly all actives have a fitted effect of over 70% in size.
Potency is the fitted concentration of half-maximal effect; tags give direction and shape of the fitted curve.

The molecules below were run against Lysine-specific demethylase 5B (Homo sapiens) (UniProt Q9UGL1) (assay: Primary screen for KDM5B Histone Demethylases FDH-coupled qHTS). Conditions: FDH-coupled NADH fluorescence (FDH is formaldehyde dehydrogenase); series mostly up to 57.7 µM.
Sequence of UniProt Q9UGL1 (Q9UGL1 whole entry, looked up): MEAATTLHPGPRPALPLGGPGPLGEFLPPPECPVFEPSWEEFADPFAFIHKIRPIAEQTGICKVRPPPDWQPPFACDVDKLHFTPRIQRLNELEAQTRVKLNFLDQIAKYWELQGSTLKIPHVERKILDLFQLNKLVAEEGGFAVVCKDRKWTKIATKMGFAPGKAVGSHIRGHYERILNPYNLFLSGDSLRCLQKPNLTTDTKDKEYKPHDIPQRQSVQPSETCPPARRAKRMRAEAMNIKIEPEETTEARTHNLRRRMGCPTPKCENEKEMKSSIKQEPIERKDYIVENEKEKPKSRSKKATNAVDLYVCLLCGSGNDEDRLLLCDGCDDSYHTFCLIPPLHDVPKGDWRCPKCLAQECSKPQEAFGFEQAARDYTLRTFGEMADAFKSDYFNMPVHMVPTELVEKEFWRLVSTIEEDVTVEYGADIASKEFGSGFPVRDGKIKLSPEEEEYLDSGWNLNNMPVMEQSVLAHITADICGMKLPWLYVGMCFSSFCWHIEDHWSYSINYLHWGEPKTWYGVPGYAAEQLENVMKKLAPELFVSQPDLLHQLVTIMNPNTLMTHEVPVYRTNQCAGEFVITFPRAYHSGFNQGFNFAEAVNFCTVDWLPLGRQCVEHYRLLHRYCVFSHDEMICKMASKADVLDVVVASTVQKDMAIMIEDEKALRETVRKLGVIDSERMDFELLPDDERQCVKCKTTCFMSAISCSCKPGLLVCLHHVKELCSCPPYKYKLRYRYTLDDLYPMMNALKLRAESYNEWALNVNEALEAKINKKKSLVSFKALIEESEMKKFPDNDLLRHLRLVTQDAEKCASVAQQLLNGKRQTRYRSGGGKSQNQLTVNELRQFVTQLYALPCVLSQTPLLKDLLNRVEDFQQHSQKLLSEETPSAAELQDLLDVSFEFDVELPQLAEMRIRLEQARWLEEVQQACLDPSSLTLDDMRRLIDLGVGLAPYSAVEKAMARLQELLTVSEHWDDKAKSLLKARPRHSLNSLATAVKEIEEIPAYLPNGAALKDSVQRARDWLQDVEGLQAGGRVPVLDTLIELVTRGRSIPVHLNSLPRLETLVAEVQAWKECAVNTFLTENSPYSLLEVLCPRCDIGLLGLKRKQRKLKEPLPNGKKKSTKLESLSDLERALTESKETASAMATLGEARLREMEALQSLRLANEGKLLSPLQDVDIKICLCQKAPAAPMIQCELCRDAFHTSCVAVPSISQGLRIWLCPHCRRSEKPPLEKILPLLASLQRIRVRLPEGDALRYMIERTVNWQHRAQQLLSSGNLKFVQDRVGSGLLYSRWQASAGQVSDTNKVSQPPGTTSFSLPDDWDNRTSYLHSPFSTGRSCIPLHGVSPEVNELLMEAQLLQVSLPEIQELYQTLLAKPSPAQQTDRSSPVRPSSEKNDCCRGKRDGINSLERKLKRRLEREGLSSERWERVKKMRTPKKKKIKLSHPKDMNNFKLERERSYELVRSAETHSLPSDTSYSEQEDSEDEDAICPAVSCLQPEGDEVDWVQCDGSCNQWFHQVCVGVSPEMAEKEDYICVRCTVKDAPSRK
In short: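 Coupled FDH/NAD⁺ fluorescence readout. KDM5BΔAP 200 nM final; compound titration, 10 min RT preincubation; substrate mix 12.5 µM H3K4me3, 25 µM 2-OG, 50 µM Fe(II), 100 µM ascorbate, 0.25 mM NAD⁺, 0.25 U/mL FDH; ΔRFU over 30 min.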
For `COc1ccc(CCNC(=O)CS(=O)Cc2nc(-c3ccc(C)cc3)oc2C)c(OC)c1` (configuration not stated), the Potency was inconclusive: 31.6 µM [inhibitor, single point].
With `O=C(Cn1c(=O)nc(-c2ccccc2)c2ccccc21)NCCCc1ccccc1` the Potency was inconclusive: 22.4 µM [inhibitor, partial curve, poor fit].
For `O=C(CN1C(=O)NC2(CCCCC2)C1=O)Nc1ccc(C(F)(F)F)cc1`, the Potency was “inactive”.
For `O=c1cc(N2CCOCC2)oc2c(Nc3ccccn3)nccc12`, the Potency was inconclusive: 25.1 µM [inhibitor, partial curve, poor fit].
With `COc1ccc(C(=O)NC2CCCN(c3cc(-c4ccccc4)[nH]n3)C2)cc1` (configuration not stated) the Potency was inconclusive: 25.1 µM [inhibitor, partial curve, poor fit].
`CCC(C)C(=O)Nc1c(C(=O)OC)n(CC2CCCO2)c2ncc(NC(C)CO)cc12` (configuration not stated) was tested, and the Potency was active: 28.2 µM.
With `COc1cc(/C=C2\C(=N)N3N=CSC3=NC2=O)ccc1OS(=O)(=O)c1ccccc1[N+](=O)[O-]` the Potency was inconclusive: 28.2 µM [inhibitor, partial curve, poor fit].
For `Cc1cc2ccccc2n1CCC(=O)N1CC[C@@](C)(O)[C@@H](O)C1`, the Potency was inconclusive: 28.2 µM [inhibitor, single point].
For `O=C(Cn1ccn2nc(-c3ccc(F)cc3)c(CO)c2c1=O)NCCC1=CCCCC1`, the Potency was inconclusive: 7.08 µM [inhibitor, single point].
With `COc1ccccc1OCCCN1C(=O)C(=O)c2cccc(C)c21` the Potency was inconclusive: 31.6 µM [inhibitor, partial curve, poor fit].
In the case of `Cc1oc2ncn(CC(C)C)c(=O)c2c1C(=O)NCCCN(Cc1ccccc1)C(C)C`, the Potency is reported as “inactive”.
With `Nc1nccnc1C(=O)Nc1cccc(F)c1` the Potency was “inactive”.
`CNC(=O)N1CCCCCCNC(=O)[C@@H]2C[C@@H](c3nc(-c4cccnc4)no3)C[C@@H]21` was tested, and the Potency was “inactive”.
`COc1cc(C)cc2oc(=O)c(CC(=O)NCCCOC(C)C)c(C)c12` was tested, and the Potency was inconclusive: 8.91 µM [inhibitor, full curve, poor fit].
With `CCS(=O)(=O)NCC(c1ccco1)N1CCN(c2ccc(OC)cc2)CC1` (configuration not stated) the Potency was inconclusive: 10 µM [inhibitor, partial curve, poor fit].
In the case of `O=C(c1ccc(N2CC[C@H](O)C2)nc1)N1CCC(N2CCOCC2)CC1`, the Potency is reported as active: 25.1 µM.
For `Cc1ccccc1CN1c2ccccc2-c2nc(SCC(=O)NCCc3ccccc3)ncc2S1(=O)=O`, the Potency was inconclusive: 17.8 µM [inhibitor, partial curve, poor fit].
With `O=C(NC1CCCCC1)N1C[C@@H]2C[C@H](C1)c1c(NS(=O)(=O)c3cccc(F)c3)ccc(=O)n1C2` the Potency was “inactive”.
In the case of `CCN(CC)c1ccc(-n2nc3cc(C)c(NC(=O)c4ccccc4F)cc3n2)cc1`, the Potency is reported as inconclusive: 20 µM [inhibitor, partial curve, poor fit].
For `Cc1ccc(CS(=O)CCC(=O)Nc2ccccc2)cc1` (configuration not stated), the Potency was “inactive”.
With `N#Cc1ccc(CN2CCn3c(nn(-c4ccc(F)cc4F)c3=O)C2)cc1` the Potency was inconclusive: 22.4 µM [inhibitor, single point].
For `CCN1CC(C(=O)NCc2csc(-c3ncccn3)n2)CCC1=O` (configuration not stated), the Potency was inconclusive: 39.8 µM [inhibitor, single point].
With `CCCCCN(CCCCC)C(=S)Nc1ccc(Br)cc1Cl` the Potency was “inactive”.
With `CCCc1cc(=O)n2[nH]c(-c3ccc(C)cc3)nc2n1` the Potency was inconclusive: 25.1 µM [inhibitor, partial curve, poor fit].
For `N/C(=C\C(=O)/C=C/c1cccs1)C(Cl)(Cl)Cl`, the Potency was inconclusive: 14.1 µM [inhibitor, partial curve, poor fit].
For `Cc1ccccc1NC1(c2nnnn2-c2ccccc2C)CCCC1`, the Potency was “inactive”.
In the case of `Cc1ccc(NC(=O)C2CCCN(c3nnc(-n4c(C)ccc4C)s3)C2)cc1Cl` (configuration not stated), the Potency is reported as inconclusive: 25.1 µM [inhibitor, partial curve, poor fit].
`CCCCc1ccc(NC(=O)COc2cccc3c(=O)n(C)ccc23)cc1` was tested, and the Potency was inconclusive: 22.4 µM [inhibitor, single point].
With `Cc1nn(CCC#N)c(C)c1[C@@H]1C=C[C@@H](NCc2ccc(F)cc2)C1` the Potency was inconclusive: 31.6 µM [inhibitor, partial curve, poor fit].
For `OCc1cc(CC2(NCC3CC3)COC2)no1`, the Potency was “inactive”.
For `CC(=O)Nc1cccc(-c2cnc3n[nH]c(-c4ccccc4C)c3n2)c1`, the Potency was active: 39.8 µM.
For `N#Cc1ncc(Cl)c2ccccc12`, the Potency was inconclusive: 17.8 µM [inhibitor, single point].
`Cc1ccc(C)c([S+](=O)([O-])c2nnn3c2nc(N2CCC(F)CC2)c2ccccc23)c1` was tested, and the Potency was active: 79.4 µM.
For `Cn1cc(-c2ccc(O)c(F)c2)c2nc(CN3CCOCC3)cn2c1=O`, the Potency was inconclusive: 28.2 µM [inhibitor, single point].
For `Cc1nc(CN2C(=O)OC3(CCN(CCCc4ccccc4)CC3)C2(C)c2ccccc2)cs1` (configuration not stated), the Potency was “inactive”.
In the case of `CC(C)(C)c1ccc(C(=O)Oc2ccc(/C=N/O)cc2)cc1`, the Potency is reported as “inactive”.
For `CN(C)c1ccc(CN2CC[C@H](c3nc4c(C(N)=O)cccc4[nH]3)C2)cc1`, the Potency was inconclusive: 31.6 µM [inhibitor, single point].
With `O=C1NCC2(CCN(c3nccc(CCC(F)(F)F)n3)CC2)O1` the Potency was active: 20 µM.
With `NC(=O)C1CCCN(Cc2ccc(-c3cnc4c(OCc5ccccc5)nccn34)cc2)C1` (configuration not stated) the Potency was active: 28.2 µM.
For `O=C(N/N=C/c1c(Cl)[nH]c2ccccc12)c1ccc2c(c1)OCCO2`, the Potency was inconclusive: 39.8 µM [inhibitor, single point].
For `CC1(C)[C@H](Cc2cc(CCO)on2)C[C@@H]1NC1CCCCC1`, the Potency was “inactive”.
In the case of `CCCNC(=O)Cc1c(C)nc2nc(N)nn2c1C`, the Potency is reported as inconclusive: 25.1 µM [inhibitor, partial curve, poor fit].
In the case of `O=C(c1cc(F)cc(F)c1)N1CCC(c2n[nH]c(=O)n2-c2ccccc2)CC1`, the Potency is reported as “inactive”.
With `Cc1ccccc1C(=O)N1CCC2(CC1)CN(c1ncccn1)CC2CO` (configuration not stated) the Potency was active: 31.6 µM.
With `COc1ccc(S(=O)(=O)N(C)Cc2nc(-c3cccc(C)c3)no2)cc1` the Potency was inconclusive: 3.98 µM [inhibitor, partial curve, poor fit].
`Cc1c(-c2ccc(F)cc2)[nH]c2ccc(CNCc3cnn(C)c3)cc12` was tested, and the Potency was active: 31.6 µM.
In the case of `O=C(CCC1CCCC1)NCc1nnc2cc(-c3nc(C4CC4)no3)ccn12`, the Potency is reported as active: 11.2 µM.
With `CCc1c(C)sc(NC(=O)C2CC2)c1C#N` the Potency was “inactive”.
For `CS(=O)(=O)c1ccc(Cl)c(C(=O)OCC(=O)c2ccc3c(c2)NC(=O)CO3)c1`, the Potency was “inactive”.
With `CN(Cc1cnn(-c2ccccc2)c1)Cc1cc2ccccc2[nH]c1=O` the Potency was inconclusive: 22.4 µM [inhibitor, single point].
`O=C(Cn1nc(Cc2cccnc2)c2ccccc2c1=O)Nc1cccc(C(F)(F)F)c1` was tested, and the Potency was inconclusive: 12.6 µM [inhibitor, partial curve, poor fit].
In the case of `Cc1nc2c(c(C)c1CCC(=O)NCCN1CCN(C)CC1)c(=O)n(C)c(=O)n2C`, the Potency is reported as inconclusive: 35.5 µM [inhibitor, single point].
`CCC(=O)OCCCNc1nc(-c2ccc(Cl)cc2)nc2ccccc12` was tested, and the Potency was inconclusive: 28.2 µM [inhibitor, partial curve, poor fit].
With `Cc1ccccc1-c1[nH]nc2ncc(-c3cnn(C)c3)nc12` the Potency was active: 31.6 µM.
With `CCOc1ccc(C(CC(=O)Nc2cc(OC)cc(OC)c2)N2Cc3ccccc3C2=O)cc1OC` (configuration not stated) the Potency was “inactive”.
For `COc1ccc(C2CC(=O)Nc3nc(N)sc32)cc1OC1CCCC1` (configuration not stated), the Potency was inconclusive: 11.2 µM [inhibitor, partial curve, poor fit].
For `COCCNC(=O)c1cc(-c2ccccc2)nc2ccc(C)cc12`, the Potency was inconclusive: 25.1 µM [inhibitor, partial curve, poor fit].
For `COC(=O)c1c(C)[nH]c(-c2cccc(OC)c2)c1C1C(=O)Nc2ccc(F)cc21` (configuration not stated), the Potency was inconclusive: 25.1 µM [inhibitor, partial curve, poor fit].
In the case of `COc1cccc(OC)c1C(=O)Nc1cccc(-c2nc3cc(C)cc(C)c3o2)c1`, the Potency is reported as inconclusive: 15.8 µM [inhibitor, partial curve, poor fit].
`Cc1c(OCC(=O)NC(Cc2c[nH]c3ccc(O)cc23)C(=O)O)ccc2c3c(c(=O)oc12)CCC3` (configuration not stated) was tested, and the Potency was inconclusive: 22.4 µM [inhibitor, partial curve, poor fit].
For `COC(=O)C1=C(C)C=C(N2CCOCC2)C(C(=O)OC)C1c1ccc(OC)cc1` (configuration not stated), the Potency was inconclusive: 39.8 µM [inhibitor, single point].
For `CC(C)c1ccccc1OCC(O)CN1CCN(S(=O)(=O)c2ccc([N+](=O)[O-])cc2)CC1` (configuration not stated), the Potency was inconclusive: 14.1 µM [inhibitor, partial curve, poor fit].
`CCOc1ccccc1C(=O)NCc1nnc2ccc(-c3ccc(C)cc3)nn12` was tested, and the Potency was inconclusive: 28.2 µM [inhibitor, partial curve, poor fit].
In the case of `CCCc1cc(-c2nc3c([nH]2)CC(c2ccccc2OC)CNC3=O)on1` (configuration not stated), the Potency is reported as “inactive”.
With `CCCc1nc(C(=O)N2CCC3(CCCNC3)C2)cs1` (configuration not stated) the Potency was inconclusive: 15.8 µM [inhibitor, partial curve, poor fit].
With `COc1ccc(C)cc1NC(=O)CN1C(=O)NC2(CCS(=O)(=O)CC2)C1=O` the Potency was “inactive”.
In the case of `COc1ccc(OCC2(C)COc3ccc(C(=O)Nc4ccn(C)n4)cc3N2)cc1` (configuration not stated), the Potency is reported as active: 31.6 µM.
